In all, about 150,000 compounds went through this assay and about 540 (0.36%) showed an effect of 50% or more. This is one part of the list.
system: Plasmodium falciparum; assay: Primary screen in NF54 nanoGlo assay, in single point, at 2uM, 72h; a lower Z score goes with more inhibition; assay type: functional, Erythrocyte; conditions: timepoint 72 hour

SMILES	% Inhibition [%]	Z score
O=C(CCCc1ccccc1)N1C2CCCC1CN(Cc1ccccc1)C2	-12	2.32
Cc1ccc(-c2n[nH]c3c2cnc2ccc(C)cc23)cc1	-5	0.82
CCN1CC[C@H](CN(CC)S(=O)(=O)c2cc(C)sc2C)C1	-10	1.95
CCc1sc(N(C(=O)Cc2ccccc2)c2ccc(C)cc2C)nc1-c1ccc(Cl)cc1	37	-1.16
O=C(Cn1cnc2c(cnn2-c2ccc(F)cc2)c1=O)N1CCN(C(=O)c2ccco2)CC1	-11	1.28
Cc1cnn(CCCn2ncc(N(C)C)cc2=O)c1	-15	2.62
O=C(Nc1cccc(Cl)c1)N1CCOC[C@H]1c1nc(-c2cccs2)no1	11	-1.46
Cc1nc2ccccn2c1CN(C)Cc1cnc(N(C)C)nc1	-5	0.69
Cc1ccc(-c2cn[nH]c2[C@H]2CCCN(C(=O)c3ncccc3O)C2)cc1	-11	1.37
c1ccc(Nc2ccc(N3CCCC3)nn2)cc1	0	-0.05
CCCc1nc(N2CCN(CC(C)C)CC2)no1	-17	3.6
CC1CN(C(=O)c2ccccc2OC2CC2)CC(C)S1(=O)=O (centres undefined)	-3	0.49
Cc1noc2ncnc(N(C)Cc3cccc(OC(C)C)c3)c12	-9	1.26
CCN1C[C@@H](C(=O)O)C[C@@H](C(=O)Nc2ccc(F)cc2)C1	-2	0.19
Cc1cccc(CN2CCC[C@H](CNC(=O)c3cccc(C(F)(F)F)c3)C2)n1	-5	0.91
Cn1ccnc1CN[C@@](C)(CO)C1CCCCC1	-16	2.94
O=C(NC1CCN(c2ccccc2C(=O)N2CCOCC2)CC1)c1cc(F)cc(F)c1	-15	1.44
Cc1nn(-c2cnc(N)cn2)c(C)c1Cc1ccccc1	-7	0.91
CC(C)Cc1cc(CN2CCC[C@@](CO)(CCc3ccccc3)C2)n[nH]1	0	-0.05
CN1N=C(C(=O)Nc2ccc(NCc3ccccc3)c(Cl)c2)CCC1=O	-11	1.99
O=C(c1cc(-c2ccccc2)on1)N1CCn2nc(C3CC3)cc2C1	11	-1.36

SMILES	% Inhibition [%]	Z score
O=C(CCc1cc2n(n1)CCN(Cc1cc3ccccc3o1)C2)NCCO	-6	1.17
COC(=O)[C@@H](c1ccccc1)N1CCC2(CC1)CC(=O)N(CC(C)C)C2	-9	1.31
O=C(NC1CCC2OCCOC2C1)c1cccnc1 (centres undefined)	-6	1.05
COc1ccc(Oc2nonc2N)cc1	6	-0.78
C[C@H]1CN(CC(=O)N(C)CC2CC2)CCS1(=O)=O	-4	0.74
CC(C)c1cnc(NC(=O)NC2(C)CCCC2)s1	-17	1.85
CC(=O)N1CCN(CCNC2=NS(=O)(=O)c3ccccc32)CC1	38	-3.85
CCC(C)C(C)(O)CNS(=O)(=O)c1cnn(C)c1 (centres undefined)	-5	0.72
CCCCn1c(N)c(N2CCOCC2)c(=O)n(CC(=O)Nc2ccc3c(c2)OCCCO3)c1=O	7	-0.77
O=C(OCc1cccc(Cl)c1)c1cccc(-n2cnnn2)c1	-50	5.82
C[C@H](NC(=O)Cn1ccccc1=O)c1nnc2n1CCCCC2	-3	0.32
CCC1CCC(CNC(=O)N(C)C[C@H]2CCN(C)C2)CC1 (some centres undefined)	-12	1.83
COc1ccc(Cn2cc([C@H](CC(=O)N3CCCC3)c3ccc(F)cc3)c3ccccc32)cc1	-8	1.05
Cc1nc(CCNC(=O)NC2CCCC2)cs1	5	-0.43
Cc1ccc(C2=NC3(CCC(C(C)(C)C)CC3)NC2=O)cc1 (centres undefined)	-13	1.48
O=C(NCC1CC1)c1nn(-c2cccc(Cl)c2)c(=O)n(Cc2ccccc2F)c1=O	-16	2.47
CCC1([C@@](O)(C#CCN2CCCCCC2)c2ccccc2)CCCC1	-16	1.41
O=c1[nH]c2cccc(N3CCN(C[C@H]4COCCO4)CC3)c2[nH]1	7	-0.73
N#Cc1ccc(O)c(NC(=O)c2cccc(-n3cccn3)n2)c1	-4	0.57
CCCCc1nc(N2CCCN(C(=O)NCc3ccccc3)CC2)c2c(-c3ccccc3)noc2n1	7	-0.71
C#Cc1cccc(N(Cc2cccs2)Cc2ncnn2C)c1	5	-1.01
